# Laboratory results reported in PubChem BioAssay.
# The shares of active, inactive and inconclusive entries below differ from those in the screen. The source made the active and inactive calls.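 Rule for the calls: active = thallium flux slope beyond 3 SD from same-plate DMSO control mean in most replicates, usually higher, sometimes lower; inconclusive = repeat tests gave conflicting results; inactive = no significant difference from controls in most replicates.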
# Target: Solute carrier family 12 member 5 (Homo sapiens) (UniProt Q9H2X9)
# Assay: modulation of KCC2 thallium flux in HEK cells – cell-based, ouabain, retest, confirmation (AID 1717);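 note: slope of initial-normalized fluorescence between seconds 10 and 20 after thallium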
# Conditions: HEK293-KCC2, thallium flux FluoZin2 fluorescence, at 10 µM, bidirectional: low = inhibitor, high = activator
# Chain of UniProt Q9H2X9 (Q9H2X9 whole entry, looked up): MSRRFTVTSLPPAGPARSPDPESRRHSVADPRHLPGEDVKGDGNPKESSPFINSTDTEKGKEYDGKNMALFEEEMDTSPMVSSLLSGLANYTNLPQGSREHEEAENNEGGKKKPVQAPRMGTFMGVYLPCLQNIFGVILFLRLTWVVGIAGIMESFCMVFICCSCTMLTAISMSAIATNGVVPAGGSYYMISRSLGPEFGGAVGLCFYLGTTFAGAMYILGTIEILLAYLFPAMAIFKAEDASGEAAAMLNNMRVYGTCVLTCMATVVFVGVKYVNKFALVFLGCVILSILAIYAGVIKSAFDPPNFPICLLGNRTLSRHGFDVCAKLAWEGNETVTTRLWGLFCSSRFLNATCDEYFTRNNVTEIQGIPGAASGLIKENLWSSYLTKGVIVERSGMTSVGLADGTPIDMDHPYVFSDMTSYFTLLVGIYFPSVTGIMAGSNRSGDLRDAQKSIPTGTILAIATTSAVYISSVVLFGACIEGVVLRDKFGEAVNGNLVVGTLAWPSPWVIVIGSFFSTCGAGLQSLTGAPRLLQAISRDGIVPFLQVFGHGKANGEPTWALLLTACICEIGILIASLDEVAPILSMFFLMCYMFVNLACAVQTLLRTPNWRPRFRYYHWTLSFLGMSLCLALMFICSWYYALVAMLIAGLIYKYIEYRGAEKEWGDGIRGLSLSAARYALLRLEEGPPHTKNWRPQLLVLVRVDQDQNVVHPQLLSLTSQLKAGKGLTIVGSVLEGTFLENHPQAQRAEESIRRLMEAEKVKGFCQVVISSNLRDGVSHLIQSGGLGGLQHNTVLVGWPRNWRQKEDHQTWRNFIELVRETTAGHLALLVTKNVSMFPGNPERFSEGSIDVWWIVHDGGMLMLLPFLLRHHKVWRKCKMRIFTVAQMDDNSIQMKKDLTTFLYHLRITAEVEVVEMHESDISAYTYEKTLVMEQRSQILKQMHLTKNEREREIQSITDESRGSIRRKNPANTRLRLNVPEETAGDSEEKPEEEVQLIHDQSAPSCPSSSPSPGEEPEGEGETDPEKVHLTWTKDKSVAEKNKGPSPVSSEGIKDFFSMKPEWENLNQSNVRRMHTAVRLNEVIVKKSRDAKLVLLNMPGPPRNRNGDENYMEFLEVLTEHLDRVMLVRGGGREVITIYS
row,Compound,"raw Tl+ flux slope (below DMSO = inhibition, above = activation)"
1,Cc1nnc(SCC(=O)NNC(=O)c2ccco2)n1-c1cccc(Cl)c1,inactive: 0.0653
2,O=C(CSc1nnc(Cc2ccccc2)o1)c1ccc(F)cc1,inconclusive: 0.0157
3,CC(=O)c1nc2ccccc2n1S(=O)(=O)c1ccc(C)cc1,inactive: 0.0181
4,O=C(O)c1ccc(NC(=S)NC(=O)c2cccc(COc3ccccc3)c2)cc1,inconclusive: 0.0174
5,COc1ccc(C2C(C(N)=O)=C(C)Nc3nc(-c4ccccc4)nn32)cc1OC (stereo unspecified),inactive: 0.0194
6,CC(C)(C)c1ccc(/C=N/NC(=S)Nc2cccnc2)cc1,inconclusive: 0.0271
7,CSc1sc(-c2n[nH]c(=S)n2C)c2c1C=CCC2,inconclusive: 0.0245
8,CCN(Cc1ccccc1)C(=O)c1cc(COc2c(F)cccc2F)on1,active: 0.0143
9,Cc1cccc(N/C(=N\S(=O)(=O)c2ccccc2)C(F)(F)F)c1,inactive: 0.0202
10,Cc1c(Cl)c([N+](=O)[O-])nn1CCCC(=O)N1CCN(c2ccccc2)CC1,inactive: 0.021
11,O=C1c2ccccc2C(=O)N1Cc1cccnc1,inactive: 0.021
12,CCOc1ccc(NC(=O)CSc2nnc(CCNC(=O)c3ccc(OC)cc3)n2CC)cc1,inactive: 0.0218
13,Fc1c(F)c(F)c(/C=N/NC(=S)Nc2cccnc2)c(F)c1F,inconclusive: 0.0338
14,Cc1ccccc1Nc1nnc(SCc2cc(=O)n3ccsc3n2)s1,inconclusive: 0.0177
15,CC1Cc2ccccc2N1C(=O)COC(=O)c1cccnc1Cl (stereo unspecified),inconclusive: 0.0167
16,C=C(C)c1cccc(C(C)(C)NC(=O)N2CCC(C(N)=O)CC2)c1,inactive: 0.0193
17,COC(=O)C(NS(C)(=O)=O)(c1c(C)[nH]c2ccccc12)C(F)(F)F (stereo unspecified),inactive: 0.0186
18,Cc1cc(C)c(NC(=O)NC(=O)c2cccc(F)c2)c(C)n1,inactive: 0.019
19,COc1ccc(CCNc2oc(COc3ccccc3F)nc2C#N)cc1OC,active: 0.015
20,Cc1ccc(/C=C2\SC(=S)N(c3c(C)n(C)n(-c4ccccc4)c3=O)C2=O)cc1,active: 0.0145
21,COc1ccc(C2CCCN2C(=O)Nc2ccc(Cl)cc2)cc1OC (stereo unspecified),inconclusive: 0.0179
22,Cc1ccnc(N2CCN(C(=O)CSc3nc4ccccc4nc3N3CCC(C)CC3)CC2)c1,inconclusive: 0.0226
23,Cc1cccc(Nc2n[nH]c(=S)s2)c1C,active: 0.00736
24,N#C/C(=C(/O)COc1ccc(Cl)cc1)c1nc2ccccc2s1,inconclusive: 0.0173
25,Cc1ccc(C2=NNC(c3cccc(F)c3)S2)cc1 (stereo unspecified),inactive: 0.0203
26,CCC(=Nc1ccc(Cc2ccncc2)cc1)c1c(O)n(C)c(=O)n(C)c1=O,inconclusive: 0.0172
